{"source": "paper PMC4336329", "about": "(PLoS ONE, 2015)", "note": "Screen size: about 310,000 compounds; about 2,200 (0.71%) showed an effect of 50% or more. Effects have a minus sign here. This is one part of the list."}
{"biological_target": "human ether-à-go-go-related gene (hERG) potassium channel (human, UniProt Q12809)", "sequence (Q12809 whole entry, looked up)": "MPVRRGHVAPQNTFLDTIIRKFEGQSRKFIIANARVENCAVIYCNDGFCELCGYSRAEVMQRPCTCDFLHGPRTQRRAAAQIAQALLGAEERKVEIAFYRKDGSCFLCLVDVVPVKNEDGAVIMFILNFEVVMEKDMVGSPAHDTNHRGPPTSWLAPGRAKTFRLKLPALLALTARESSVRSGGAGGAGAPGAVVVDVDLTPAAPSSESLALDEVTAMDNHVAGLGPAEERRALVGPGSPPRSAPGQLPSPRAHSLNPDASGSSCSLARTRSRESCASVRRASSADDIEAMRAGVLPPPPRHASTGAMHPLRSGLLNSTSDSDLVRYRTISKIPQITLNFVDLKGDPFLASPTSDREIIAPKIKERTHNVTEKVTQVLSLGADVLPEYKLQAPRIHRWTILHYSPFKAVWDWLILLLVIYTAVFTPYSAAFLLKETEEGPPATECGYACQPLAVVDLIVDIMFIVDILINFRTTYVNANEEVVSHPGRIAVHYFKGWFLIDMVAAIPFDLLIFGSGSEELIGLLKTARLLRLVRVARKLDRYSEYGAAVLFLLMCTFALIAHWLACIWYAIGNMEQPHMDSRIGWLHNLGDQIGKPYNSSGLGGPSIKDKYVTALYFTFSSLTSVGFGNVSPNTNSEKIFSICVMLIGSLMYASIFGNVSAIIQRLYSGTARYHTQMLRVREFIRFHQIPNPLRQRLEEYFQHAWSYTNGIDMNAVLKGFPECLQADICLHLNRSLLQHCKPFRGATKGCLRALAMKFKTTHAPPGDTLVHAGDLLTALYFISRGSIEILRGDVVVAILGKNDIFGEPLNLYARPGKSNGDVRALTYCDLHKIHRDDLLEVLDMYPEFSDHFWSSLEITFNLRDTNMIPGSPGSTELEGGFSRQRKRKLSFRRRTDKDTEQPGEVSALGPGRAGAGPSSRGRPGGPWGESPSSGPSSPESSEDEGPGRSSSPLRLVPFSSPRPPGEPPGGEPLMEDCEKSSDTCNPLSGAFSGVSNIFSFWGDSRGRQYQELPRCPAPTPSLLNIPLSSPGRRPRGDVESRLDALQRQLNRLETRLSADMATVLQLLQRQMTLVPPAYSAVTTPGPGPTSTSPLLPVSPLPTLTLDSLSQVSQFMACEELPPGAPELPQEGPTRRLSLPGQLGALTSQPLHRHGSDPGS", "test": "primary screen, population patch clamp on CHO cells stably expressing hERG", "units": {"hERG current change (%, negative = inhibition) at 1uM": "%"}}
{"molecule": "Cc1ccc(-c2csc(N3CCN(c4cc5c(cc4Cl)nc(-c4ccncc4)n5CCOCCO)CC3)n2)cc1", "hERG current change (%, negative = inhibition) at 1uM": 6.94}
{"molecule": "COc1ccc(C2OC(=O)CC2C(=O)NC2CCCCCC2)cc1OC", "note": "(stereo not drawn)", "hERG current change (%, negative = inhibition) at 1uM": -2.2}
{"molecule": "Cc1ccc(C)n1-c1ccc(C(=O)NN=C2CCCC2)cc1", "hERG current change (%, negative = inhibition) at 1uM": 5.38}
{"molecule": "Cc1ccc(C(=O)NNC(=O)CSc2nnc(-c3ccccc3)n2Cc2ccccc2)cc1", "hERG current change (%, negative = inhibition) at 1uM": 3.13}
{"molecule": "Cc1ccc(-c2cc3nc(C)cc(NCc4ccco4)n3n2)cc1", "hERG current change (%, negative = inhibition) at 1uM": -7.85}
{"molecule": "Cc1cc(C)n(-c2cccc(CN(C)Cc3nc(-c4cnccn4)no3)c2)n1", "hERG current change (%, negative = inhibition) at 1uM": -5.38}
{"molecule": "CC(C)Sc1sc(C(=O)O)c(-c2ccc(Cl)cc2)c1C#N", "hERG current change (%, negative = inhibition) at 1uM": 10.8}
{"molecule": "O=C(c1ccccc1[N+](=O)[O-])N1CC2C3C=CC(C3)C2C1", "note": "(stereo not drawn)", "hERG current change (%, negative = inhibition) at 1uM": 19.8}
{"molecule": "Cc1ccc(C)c(-c2csc(-c3cccnc3)n2)c1", "hERG current change (%, negative = inhibition) at 1uM": 15.1}
{"molecule": "O=C(O)CCCCCN1C(=O)C2CCCCC2C1=O", "note": "(stereo not drawn)", "hERG current change (%, negative = inhibition) at 1uM": 8.83}
{"molecule": "Cc1cc(OC(=O)c2ccccc2Cl)c([N+](=O)[O-])c(=O)[nH]1", "hERG current change (%, negative = inhibition) at 1uM": 9.95}
{"molecule": "COc1ccccc1C(=O)Nc1nnc(-c2ccc3c(c2)CCCC3)o1", "hERG current change (%, negative = inhibition) at 1uM": 12.7}
{"molecule": "COc1ccc(NC(=O)C/C(C)=N/NC(=O)c2cnccn2)c(OC)c1", "hERG current change (%, negative = inhibition) at 1uM": 17}
{"molecule": "Cc1cc(S(=O)(=O)N2CCCOC2CNC(=O)C(=O)NCCCN2CCOCC2)ccc1F", "note": "(stereo not drawn)", "hERG current change (%, negative = inhibition) at 1uM": 15.5}
{"molecule": "O=C(Oc1ccc(/C=N/n2cnnc2)cc1)c1cccc([N+](=O)[O-])c1", "hERG current change (%, negative = inhibition) at 1uM": 12.3}
{"molecule": "O=C(Cn1cnc2c(nnn2-c2cccc(Cl)c2)c1=O)NCc1ccccc1", "hERG current change (%, negative = inhibition) at 1uM": 5.51}
{"molecule": "O=C(CSc1ncn[nH]1)Nc1nsc(-c2ccccc2)n1", "hERG current change (%, negative = inhibition) at 1uM": 0.0158}
{"molecule": "O=C(c1cccc(OC2CCN(Cc3ccc(F)cc3Cl)CC2)c1)N1CCCC1", "hERG current change (%, negative = inhibition) at 1uM": 11}
{"molecule": "CCOC(=O)c1ccc(NC(=O)NCc2c(C)nn(CC)c2C)cc1", "hERG current change (%, negative = inhibition) at 1uM": 15.5}
{"molecule": "[O-]/[N+](=C\\c1ccc(OC(F)F)cc1)c1ccccc1", "hERG current change (%, negative = inhibition) at 1uM": 2.04}
{"molecule": "Cc1[nH]n(-c2ccccc2)c(=O)c1-c1ccc(Cl)cc1", "hERG current change (%, negative = inhibition) at 1uM": 11.7}
{"molecule": "CCN(CC)C(=O)c1ccc(NC(=O)COc2ccc(-c3nn(C)c(=O)c4ccccc34)cc2)cc1", "hERG current change (%, negative = inhibition) at 1uM": 3.48}
{"molecule": "Cc1ccc(NC(=O)CCC(=O)N/N=C/c2ccco2)c(C)c1", "hERG current change (%, negative = inhibition) at 1uM": 11}
{"molecule": "CN(C)S(=O)(=O)c1ccc(NC(=O)c2cc(-c3cccs3)nc3ccccc23)cc1", "hERG current change (%, negative = inhibition) at 1uM": 14.6}
